Here are results for 7 substances from paper PMC6893434.

By UniProt entry, the sequences of proteins in these tests, tags left out. Where a name states a change or a piece, a line headed by the entry shows the natural chain unless it says otherwise.
UniProt Q96D31: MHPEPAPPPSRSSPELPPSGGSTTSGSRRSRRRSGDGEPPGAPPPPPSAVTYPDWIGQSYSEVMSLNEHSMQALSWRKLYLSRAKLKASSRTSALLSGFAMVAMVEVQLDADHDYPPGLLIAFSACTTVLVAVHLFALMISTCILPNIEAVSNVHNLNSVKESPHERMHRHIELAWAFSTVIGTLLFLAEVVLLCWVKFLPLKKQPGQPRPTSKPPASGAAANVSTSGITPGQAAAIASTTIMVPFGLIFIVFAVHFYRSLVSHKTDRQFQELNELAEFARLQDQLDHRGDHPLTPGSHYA
UniProt P40145: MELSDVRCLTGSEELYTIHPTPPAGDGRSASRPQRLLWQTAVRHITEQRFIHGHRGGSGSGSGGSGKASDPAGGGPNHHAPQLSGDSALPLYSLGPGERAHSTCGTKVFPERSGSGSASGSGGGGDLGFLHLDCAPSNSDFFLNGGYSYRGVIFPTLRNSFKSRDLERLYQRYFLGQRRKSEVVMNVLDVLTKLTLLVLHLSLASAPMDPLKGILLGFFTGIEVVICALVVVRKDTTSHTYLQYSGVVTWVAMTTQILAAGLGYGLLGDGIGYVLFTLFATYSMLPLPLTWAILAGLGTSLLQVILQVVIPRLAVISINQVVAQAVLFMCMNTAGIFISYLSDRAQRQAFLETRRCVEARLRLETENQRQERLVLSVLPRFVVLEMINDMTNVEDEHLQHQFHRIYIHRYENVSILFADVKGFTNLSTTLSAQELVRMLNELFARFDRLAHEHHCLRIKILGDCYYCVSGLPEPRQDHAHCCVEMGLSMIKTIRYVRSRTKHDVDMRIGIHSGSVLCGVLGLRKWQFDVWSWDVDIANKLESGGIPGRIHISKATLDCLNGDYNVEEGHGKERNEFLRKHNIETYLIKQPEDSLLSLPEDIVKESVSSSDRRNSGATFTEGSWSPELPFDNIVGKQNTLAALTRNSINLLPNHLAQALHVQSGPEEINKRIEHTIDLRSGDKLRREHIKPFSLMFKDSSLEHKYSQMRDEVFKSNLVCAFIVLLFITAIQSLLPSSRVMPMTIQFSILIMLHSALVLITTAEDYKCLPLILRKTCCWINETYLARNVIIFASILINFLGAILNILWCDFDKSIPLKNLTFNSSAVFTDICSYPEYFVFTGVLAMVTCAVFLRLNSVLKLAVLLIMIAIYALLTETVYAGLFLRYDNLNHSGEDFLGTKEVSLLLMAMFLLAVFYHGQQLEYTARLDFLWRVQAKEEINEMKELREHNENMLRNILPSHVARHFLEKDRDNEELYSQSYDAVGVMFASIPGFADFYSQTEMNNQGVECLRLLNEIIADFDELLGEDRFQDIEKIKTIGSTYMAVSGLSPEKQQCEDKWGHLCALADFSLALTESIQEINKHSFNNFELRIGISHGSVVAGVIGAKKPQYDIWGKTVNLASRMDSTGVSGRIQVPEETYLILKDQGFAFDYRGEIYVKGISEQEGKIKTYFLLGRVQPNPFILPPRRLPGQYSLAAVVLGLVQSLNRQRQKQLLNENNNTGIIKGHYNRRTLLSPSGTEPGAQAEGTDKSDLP

Assay [1] deals with Orai1 (endogenous, variants not told apart) (human (endogenous in MCF10A, MCF7, MDA-MB-231)) (UniProt Q96D31). The assay can be described thus: co-IP; whole-cell lysates (NP-40 buffer, pH 8) of MCF10A, MCF7 and MDA-MB-231 cells precipitated with anti-Orai1 antibody and protein A agarose overnight at 4 °C, blot with anti-AC8; resting cells; MDA-MB-231 also with or without 1 µM TG for 1 min, dimethyl BAPTA loading, 1 mM Ca2+ or Ca2+-free medium.

Assay [2] concerns the target Ca2+ calmodulin-activated adenylyl cyclase type 8 (human (endogenous in MCF10A, MCF7, MDA-MB-231)) (UniProt P40145). Nature of the assay: co-IP; MDA-MB-231 cells transfected with YFP-Orai1 or the Orai1 mutants, 1 µM TG or vehicle for 1 min; whole-cell lysates precipitated with anti-AC8 antibody, blot with anti-Orai1.
For assay [3] the target is unchanged. The assay can be described thus: co-IP; MDA-MB-231 whole-cell lysates (1 µM TG or vehicle, 1 min) precipitated with anti-AC8 antibody, bound proteins eluted with soft elution buffer and precipitated again with anti-Orai1; membranes reprobed with anti-Orai1 and anti-AC8.
For assay [4] the target is unchanged. The assay can be described thus: co-IP; MDA-MB-231 whole-cell lysates (resting or 1 µM TG for 1 min) precipitated with anti-AC8 antibody; immunoprecipitates treated with PNGaseF, blot with anti-Orai1.

No constants are given. Whether binding was seen depends on the method and setting. In cells and extracts the contact can be indirect. Some entries that bind do so weakly or less than the wild type.

On to “Ca2+ calmodulin-activated adenylyl cyclase type 8 (from UniProt P40145 1-1251) (enzyme)”, for which, in assay [1], the binding entry is reported as “binds”. For “Flag-Orai1-S27A/S30A (from UniProt Q96D31 1-301)”, the binding entry in assay [2] is “binds”. On the same count and under the same terms, with “Flag-Orai1-S27D/S30D (from UniProt Q96D31 1-301)” the entry was “binds”. Consider “Orai1 (endogenous, variants not told apart) (from UniProt Q96D31 1-301)”, for which, in assay [3], the binding result is on record as “binds”. For the substance Orai1α (from UniProt Q96D31 1-301), the binding result in assay [4] is reported as “binds”. For Orai1β (from UniProt Q96D31 64-301), in assay [4], the binding entry is “no binding”.

Regarding YFP-Orai1 (from UniProt Q96D31 1-301), the binding entry in assay [2] was “binds”.
